Experimental data reported in paper PMC9774280.
These are yes or no findings as the source states them, for the method shown. In cells and extracts the contact can be indirect. Some results given as binding are weak or reduced against the parent protein; the word gives no strength. For part of these data: Sequences can lack the tags named with a protein. Each block holds one substance with its values, some of them ahead of it.

By UniProt entry, the sequences of proteins in these tests, tags left out. Where a name states a change or a piece, a line headed by the entry shows the natural chain unless it says otherwise. Residues count along the entry.
UniProt Q9QUK6, residues 26-835: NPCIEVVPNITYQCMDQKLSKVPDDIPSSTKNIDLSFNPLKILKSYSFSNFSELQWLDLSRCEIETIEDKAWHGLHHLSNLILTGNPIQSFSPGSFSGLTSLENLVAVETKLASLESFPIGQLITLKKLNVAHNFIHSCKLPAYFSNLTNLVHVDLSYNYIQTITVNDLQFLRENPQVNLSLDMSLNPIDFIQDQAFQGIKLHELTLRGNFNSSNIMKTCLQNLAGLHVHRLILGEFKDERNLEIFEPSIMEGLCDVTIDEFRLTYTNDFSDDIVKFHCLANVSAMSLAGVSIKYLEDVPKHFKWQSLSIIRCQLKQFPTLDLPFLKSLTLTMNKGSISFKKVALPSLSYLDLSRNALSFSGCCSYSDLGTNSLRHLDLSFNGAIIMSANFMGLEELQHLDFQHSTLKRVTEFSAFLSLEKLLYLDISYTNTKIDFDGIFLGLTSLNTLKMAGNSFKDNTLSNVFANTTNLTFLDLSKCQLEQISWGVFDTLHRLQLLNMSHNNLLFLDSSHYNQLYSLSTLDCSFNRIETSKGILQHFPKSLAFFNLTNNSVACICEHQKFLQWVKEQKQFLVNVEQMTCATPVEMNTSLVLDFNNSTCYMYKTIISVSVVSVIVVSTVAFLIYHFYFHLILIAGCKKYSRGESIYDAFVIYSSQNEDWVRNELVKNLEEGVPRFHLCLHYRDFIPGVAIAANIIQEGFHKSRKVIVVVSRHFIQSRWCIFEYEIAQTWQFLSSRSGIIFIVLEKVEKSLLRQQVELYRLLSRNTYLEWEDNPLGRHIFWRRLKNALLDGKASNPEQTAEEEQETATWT
UniProt O00206: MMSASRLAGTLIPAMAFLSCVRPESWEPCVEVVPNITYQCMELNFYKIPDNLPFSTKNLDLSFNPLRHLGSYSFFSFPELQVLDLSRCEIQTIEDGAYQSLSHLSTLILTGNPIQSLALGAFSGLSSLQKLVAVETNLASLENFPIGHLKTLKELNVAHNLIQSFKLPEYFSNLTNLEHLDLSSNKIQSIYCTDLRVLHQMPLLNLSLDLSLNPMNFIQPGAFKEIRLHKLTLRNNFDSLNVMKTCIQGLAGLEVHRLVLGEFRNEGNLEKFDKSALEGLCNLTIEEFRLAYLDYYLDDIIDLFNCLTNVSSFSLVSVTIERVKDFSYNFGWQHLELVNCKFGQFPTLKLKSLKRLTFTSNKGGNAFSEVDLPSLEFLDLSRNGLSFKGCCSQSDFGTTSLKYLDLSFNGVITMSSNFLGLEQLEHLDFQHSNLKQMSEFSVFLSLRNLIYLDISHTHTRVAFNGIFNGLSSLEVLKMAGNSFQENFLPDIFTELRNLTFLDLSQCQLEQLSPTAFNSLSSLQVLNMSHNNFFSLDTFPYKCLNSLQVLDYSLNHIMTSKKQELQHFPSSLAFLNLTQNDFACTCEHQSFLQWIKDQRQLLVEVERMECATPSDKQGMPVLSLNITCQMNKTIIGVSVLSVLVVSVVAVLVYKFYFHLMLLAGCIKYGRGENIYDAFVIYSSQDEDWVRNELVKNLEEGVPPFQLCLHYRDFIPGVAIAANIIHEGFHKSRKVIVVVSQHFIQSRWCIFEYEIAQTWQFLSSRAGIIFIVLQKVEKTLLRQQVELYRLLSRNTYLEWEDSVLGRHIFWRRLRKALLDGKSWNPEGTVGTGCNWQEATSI
UniProt Q8R4B8: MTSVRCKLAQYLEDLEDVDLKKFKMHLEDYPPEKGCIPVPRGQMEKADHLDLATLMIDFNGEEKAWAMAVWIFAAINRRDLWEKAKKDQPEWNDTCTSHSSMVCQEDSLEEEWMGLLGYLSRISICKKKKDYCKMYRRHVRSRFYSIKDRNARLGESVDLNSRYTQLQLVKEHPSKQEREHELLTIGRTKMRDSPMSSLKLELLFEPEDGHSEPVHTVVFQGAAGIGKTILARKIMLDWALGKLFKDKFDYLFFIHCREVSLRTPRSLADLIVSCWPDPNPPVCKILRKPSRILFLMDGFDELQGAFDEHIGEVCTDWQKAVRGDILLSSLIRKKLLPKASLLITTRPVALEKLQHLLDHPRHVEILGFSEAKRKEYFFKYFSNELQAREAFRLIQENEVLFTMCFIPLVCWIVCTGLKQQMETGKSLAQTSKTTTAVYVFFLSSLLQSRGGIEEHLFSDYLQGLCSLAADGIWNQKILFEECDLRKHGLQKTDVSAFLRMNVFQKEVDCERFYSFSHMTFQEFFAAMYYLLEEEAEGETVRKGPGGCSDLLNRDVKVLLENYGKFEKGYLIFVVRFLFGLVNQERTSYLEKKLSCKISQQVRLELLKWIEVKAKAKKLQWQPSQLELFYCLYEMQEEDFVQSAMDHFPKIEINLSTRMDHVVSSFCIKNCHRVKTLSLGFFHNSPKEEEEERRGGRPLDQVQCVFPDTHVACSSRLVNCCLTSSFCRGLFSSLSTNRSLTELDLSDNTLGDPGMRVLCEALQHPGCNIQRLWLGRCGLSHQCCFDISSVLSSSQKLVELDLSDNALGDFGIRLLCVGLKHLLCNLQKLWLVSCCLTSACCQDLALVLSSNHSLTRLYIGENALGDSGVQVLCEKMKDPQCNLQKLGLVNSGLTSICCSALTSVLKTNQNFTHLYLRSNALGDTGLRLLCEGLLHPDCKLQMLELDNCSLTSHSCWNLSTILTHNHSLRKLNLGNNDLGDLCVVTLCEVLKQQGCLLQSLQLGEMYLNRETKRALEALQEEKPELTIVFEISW

Experiments:
[1] = target: recombinant NAMPT protein (UniProt P43490); assay: co-IP; BMDMs incubated with rNAMPT (1 μg/mL) for 2 h; IP with anti-His, IB with anti-TLR4, anti-CYBB, anti-CYBA, anti-ASC or anti-NLRP3; only the target purified
[2] = target: Nicotinamide phosphoribosyl transferase (NAMPT), endogenous, extracellular (e) NAMPT of macrophages (mouse (endogenous in BMDMs and colon)) (UniProt Q99KQ4); assay: co-IP; BMDMs primed with LPS (100 ng/mL) and stimulated with ATP (1 mM); NP-40 lysate; IP with anti-NAMPT, IB with anti-TLR4, anti-CYBB, anti-CYBA, anti-ASC or anti-NLRP3
[3] = target: T1, GST-NAMPT (10-116), N-terminus of NAMPT (UniProt P43490); assay: pull-down; 293T cells co-transfected with the GST fusion and the tagged partner; NP-40 lysate, glutathione-Sepharose, 4 °C, 4 h; IB with anti-Flag, anti-V5 or anti-Myc
T1 sequence: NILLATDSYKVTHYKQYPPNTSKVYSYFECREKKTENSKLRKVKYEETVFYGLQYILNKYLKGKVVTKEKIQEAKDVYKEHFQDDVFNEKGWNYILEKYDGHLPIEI

[4] = target: TLR4, endogenous (mouse (endogenous in BMDMs and colon)) (UniProt Q9QUK6); assay: co-IP; competition: TAT-NAMPT peptides on BMDMs incubated with rNAMPT; loss of the anti-His co-precipitate of TLR4 or CYBB read out; peptide against the endogenous receptor; only the binder purified
Flag-TLR4 = Flag-TLR4 (UniProt O00206); assay: co-IP; competition: TAT-NAMPT peptides (5 µM; 1, 5, 10 µM, 6 h) added to 293T cells expressing Myc-NAMPT and Flag-TLR4 or V5-CYBB; loss of the co-precipitate read out; peptide against the tagged receptor; only the binder purified
Myc-NAMPT = Myc-NAMPT (UniProt P43490); assay: co-IP; 293T cells transfected with Flag-TLR4 or its mutants and Myc-NAMPT; IP with anti-Myc, IB with anti-Flag
GST-CYBB = target: T2, GST-CYBB (UniProt P04839); assay: pull-down; 293T cells co-transfected with the GST fusion and the tagged partner; NP-40 lysate, glutathione-Sepharose, 4 °C, 4 h; IB with anti-Flag, anti-V5 or anti-Myc
T2 sequence: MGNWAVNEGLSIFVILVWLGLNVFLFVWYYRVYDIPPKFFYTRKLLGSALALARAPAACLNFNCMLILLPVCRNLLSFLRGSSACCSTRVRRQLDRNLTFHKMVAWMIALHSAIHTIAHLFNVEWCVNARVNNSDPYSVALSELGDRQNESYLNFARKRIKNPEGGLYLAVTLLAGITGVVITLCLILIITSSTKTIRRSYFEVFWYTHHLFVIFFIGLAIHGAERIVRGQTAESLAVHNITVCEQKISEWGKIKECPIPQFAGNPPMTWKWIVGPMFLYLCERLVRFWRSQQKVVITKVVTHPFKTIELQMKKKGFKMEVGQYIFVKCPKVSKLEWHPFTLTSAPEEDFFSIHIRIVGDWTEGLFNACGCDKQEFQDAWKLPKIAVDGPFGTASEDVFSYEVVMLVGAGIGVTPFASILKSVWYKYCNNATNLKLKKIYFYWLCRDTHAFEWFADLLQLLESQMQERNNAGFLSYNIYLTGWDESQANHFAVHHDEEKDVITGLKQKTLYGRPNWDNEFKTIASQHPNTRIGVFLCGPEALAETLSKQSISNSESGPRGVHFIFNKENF

[5] = target: Nicotinamide phosphoribosyl transferase (NAMPT), endogenous, extracellular (e) NAMPT of macrophages (mouse (endogenous in BMDMs and colon)) (UniProt Q99KQ4); assay: co-IP; colon of DSS-treated Lenti-shNS-transduced mice (rVehicle, rCT or rCT-NAMPT given); IP with anti-His or anti-NAMPT, IB with anti-TLR4, anti-CYBB or anti-CYBA
[6] = target: Nicotinamide phosphoribosyl transferase (NAMPT), endogenous, extracellular (e) NAMPT of macrophages (mouse (endogenous in BMDMs and colon)) (UniProt Q99KQ4); assay: condition: only in Lenti-shITG-transduced (ITGA6/ITGB1 knock-down) mice; co-IP; colon of DSS-treated Lenti-shITG-transduced (ITGA6 and ITGB1 knock-down) mice; IP with anti-His or anti-NAMPT, IB with anti-TLR4, anti-CYBB or anti-CYBA
[7] = target: T3, CYBB, endogenous (mouse (endogenous in BMDMs and colon)) (UniProt Q61093); assay: co-IP; competition: TAT-NAMPT peptides on BMDMs incubated with rNAMPT; loss of the anti-His co-precipitate of TLR4 or CYBB read out; peptide against the endogenous receptor; only the binder purified
T3 sequence: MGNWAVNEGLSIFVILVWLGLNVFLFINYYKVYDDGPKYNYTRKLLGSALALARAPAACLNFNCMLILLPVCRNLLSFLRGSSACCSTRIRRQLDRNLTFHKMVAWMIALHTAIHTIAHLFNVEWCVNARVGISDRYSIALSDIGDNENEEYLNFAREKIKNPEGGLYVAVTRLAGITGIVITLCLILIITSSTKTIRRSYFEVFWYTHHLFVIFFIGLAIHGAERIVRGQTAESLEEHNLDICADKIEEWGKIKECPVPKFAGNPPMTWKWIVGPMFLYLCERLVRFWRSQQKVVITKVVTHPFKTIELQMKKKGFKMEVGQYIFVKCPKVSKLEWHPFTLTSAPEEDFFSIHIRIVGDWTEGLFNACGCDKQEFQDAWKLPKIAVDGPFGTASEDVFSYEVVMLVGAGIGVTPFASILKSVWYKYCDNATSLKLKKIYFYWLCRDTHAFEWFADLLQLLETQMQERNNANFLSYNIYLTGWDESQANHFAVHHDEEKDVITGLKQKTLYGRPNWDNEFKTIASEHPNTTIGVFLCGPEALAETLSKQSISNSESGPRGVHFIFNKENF

V5-CYBB = target: T4, V5-CYBB (UniProt P04839); assay: co-IP; competition: TAT-NAMPT peptides (5 µM; 1, 5, 10 µM, 6 h) added to 293T cells expressing Myc-NAMPT and Flag-TLR4 or V5-CYBB; loss of the co-precipitate read out; peptide against the tagged receptor; only the binder purified
T4 sequence: T2 sequence

binding [1]: no binding (tested: 1 μg/mL rNAMPT)
binding [2]: no binding
Substance: NLRP3, endogenous (from UniProt Q8R4B8 1-1033)

binding [3]: binds
Substance: Flag-TLR4 (from UniProt O00206 24-811) (receptor)

Substance: TAT–NAMPT (aa 57–65) peptide (from UniProt P43490 57-65)
binding [4]: binds
binding (Flag-TLR4): binds

binding (Myc-NAMPT): binds
Substance: Flag-TLR4 (25-696), extracellular leucine-rich region (LRR domain) (from UniProt O00206 25-696) (domain or fragment)

binding (GST-CYBB): binds
Substance: Myc-NAMPT (from UniProt P43490 1-491)

binding [1]: binds
binding [5]: binds
binding [2]: binds
binding [6]: no binding
Substance: TLR4, endogenous (from UniProt Q9QUK6 26-835) (receptor)

Substance: TAT–NAMPT (aa 52–56) peptide (from UniProt P43490 52-56)
binding [7]: binds
binding (V5-CYBB): binds

binding (Flag-TLR4): binds
binding (V5-CYBB): binds
Substance: TAT–NAMPT (aa 40–69) peptide (from UniProt P43490 40-69)
